# Reference: PubChem BioAssay AID902 (National Center for Advancing Translational Sciences (NCATS), 2007)
# The whole screen tested about 130,000 compounds, of which about 1,900 (1.5%) were called active. Inconclusive means that the source gave no clear call. Such entries were picked first, then a sample of the others. The call rests on the fitted dose curve; in most records, active means well fitted cell-killing curve with a large enough effect; inconclusive means small, poorly fitted or top-dose-only effect; inactive means no such curve, though single readings can be large or run the other way. A potency beside an inconclusive call is a rough fit, not a confirmed value.
# Test: qHTS Screen for Compounds that Selectively Target Cancer Cells with p53 Mutations: Cytotoxicity of p53ts Cells at the Nonpermissive Temperature; further: nearly all actives have a fitted effect of over 55% in size
# Settings: H1299-p53A138V viability at 39C, ATP luminescence, 24 h; series mostly up to 46.1 µM
# Potency means the concentration at half of the fitted maximal effect; tags describe the fitted curve by direction and shape.
row,Structure (SMILES),Potency
1,COc1cccc(-c2cc(NCc3cnc(C)cn3)ncn2)c1,inactive
2,Cc1cc2c(cc1S(=O)(=O)CCC(=O)N1CCN(c3ccccc3)CC1)OCC(=O)N2,"inconclusive: 3.98 µM [cytotoxic, partial curve, poor fit]"
3,CCOC(=O)Cc1ccc(NC(=O)Nc2nnc(N3CCCCC3C)s2)cc1 (centres undefined),inactive
4,COc1ccc(-c2cc(C(=O)Oc3ccc(Br)cc3)c3ccccc3n2)cc1,active: 12.6 µM
5,Cc1ccc(NC(=O)c2oc3ccccc3c2NC(=O)C2CCCCC2)cc1,inactive
6,COc1ccc(-c2cc3nc4c(c(=O)n3[nH]2)CCC4)cc1,"inconclusive: 10 µM [cytotoxic, partial curve]"
7,COc1cccc(C2C(=O)N(C3CCCCC3)CC(=O)N2CCc2ccc(OC)c(OC)c2)c1 (centres undefined),"inconclusive: 0.316 µM [cytotoxic, full curve]"
8,Cc1ccc(NC(=O)c2cc(-c3ccc4c(c3)OCO4)on2)cc1,inactive
9,COCCCNC(=O)CN1C(=O)c2c(c3ccccc3n2C)C1c1ccc(OC)cc1 (centres undefined),"inconclusive: 0.0251 µM [cytotoxic, full curve, poor fit]"
10,COc1ccccc1CNC(=O)c1c2c(nc3ccccc13)C(=O)N(C1CCCCC1)C2,"inconclusive: 0.0158 µM [cytotoxic, full curve, poor fit]"
11,Cc1cccc(-n2ncc3c(N(CCO)CCO)ncnc32)c1,"inconclusive: 14.1 µM [cytotoxic, single point]"
12,O=c1c2c(nc3n1CCCCC3)sc1c(O)cccc12,"inconclusive: 12.6 µM [cytotoxic, partial curve]"
13,COc1cc(CN2CCc3nc(Nc4ccc5c(c4)OCCO5)ncc3C2)cc(OC)c1OC,"inconclusive: 12.6 µM [cytotoxic, partial curve]"
14,CCCCCCSC1=C(C#N)C(c2ccc(O)cc2)CC(=O)N1 (centres undefined),"inconclusive: 25.1 µM [cytotoxic, single point]"
15,CCc1ccccc1NC(=O)CC(c1ccc(F)cc1)N1Cc2ccccc2C1=O (centres undefined),inactive
16,CCOC(=O)c1cc2c(=O)n3ccccc3nc2n(Cc2ccco2)c1=NC(=O)c1cc(C)cc(C)c1,"inconclusive: 1 µM [cytotoxic, full curve]"
17,COC(=O)c1ccc(NS(=O)(=O)c2ccc3[nH]c4c(c3c2)CCCCC4)cc1,"inconclusive: 31.6 µM [cytotoxic, single point]"
18,CC(=O)N1CCCc2cc(S(=O)(=O)N3CCC(C(=O)NC4CCCCC4)CC3)ccc21,"inconclusive: 31.6 µM [cytotoxic, single point]"
19,Cc1cccc(OCCn2nnc3sc4c(c3c2=O)CCCC4)c1,"inconclusive: 2 µM [cytotoxic, partial curve, poor fit]"
